Assay results from the supplement of paper PMC6089552.
In all, about 3,200 compounds went through this assay and about 300 (9.4%) showed activity. The list shows a part of the results, in another mix than the full data.

Tested on: A673/TR/shEF
Assay: cell viability (LOESS-normalised, relative to median of negative controls) (log2 ratio); higher = more viable cells (less compound effect), active = hit call of the paper (over 3 MAD below the median)
Conditions: treatment time: 72 h
In short: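 A673/TR/shEF Ewing sarcoma cells (1,500 per well, 384-well plates) were grown with or without doxycycline to induce EWS-FLI1 shRNA knockdown, starting 24 h before compounds. Library compounds at two or more concentrations, with DMSO controls, were added for three days. Cell viability was read by CellTiter-Glo luminescence on an Envision reader, then LOESS-corrected per plate, divided by the median of negative controls and log2-transformed. Hits were wells at least three median absolute deviations from the median of all screened wells.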

[1] = 0.25 µM, library screen: screen2, EWS-FLI1 expression: high (no doxycycline)
[2] = 0.25 µM, library screen: screen2, EWS-FLI1 expression: low (doxycycline-induced shRNA knockdown)
[3] = 2.5 µM, library screen: screen2, EWS-FLI1 expression: high (no doxycycline)
[4] = 2.5 µM, library screen: screen2, EWS-FLI1 expression: low (doxycycline-induced shRNA knockdown)
[5] = 0.25 µM, library screen: screen1, EWS-FLI1 expression: high (no doxycycline)
[6] = 0.25 µM, library screen: screen1, EWS-FLI1 expression: low (doxycycline-induced shRNA knockdown)
[7] = 2.5 µM, library screen: screen1, EWS-FLI1 expression: high (no doxycycline)
[8] = 2.5 µM, library screen: screen1, EWS-FLI1 expression: low (doxycycline-induced shRNA knockdown)
[9] = 0.103 µM, library screen: screen3, EWS-FLI1 expression: high (no doxycycline)
[10] = 0.103 µM, library screen: screen3, EWS-FLI1 expression: low (doxycycline-induced shRNA knockdown)
[11] = 0.308 µM, library screen: screen3, EWS-FLI1 expression: high (no doxycycline)
[12] = 0.308 µM, library screen: screen3, EWS-FLI1 expression: low (doxycycline-induced shRNA knockdown)
[13] = 0.926 µM, library screen: screen3, EWS-FLI1 expression: high (no doxycycline)
[14] = 0.926 µM, library screen: screen3, EWS-FLI1 expression: low (doxycycline-induced shRNA knockdown)
[15] = 2.8 µM, library screen: screen3, EWS-FLI1 expression: high (no doxycycline)
[16] = 2.8 µM, library screen: screen3, EWS-FLI1 expression: low (doxycycline-induced shRNA knockdown)
[17] = 8.3 µM, library screen: screen3, EWS-FLI1 expression: high (no doxycycline)
[18] = 8.3 µM, library screen: screen3, EWS-FLI1 expression: low (doxycycline-induced shRNA knockdown)
[19] = 25 µM, library screen: screen3, EWS-FLI1 expression: high (no doxycycline)
[20] = 25 µM, library screen: screen3, EWS-FLI1 expression: low (doxycycline-induced shRNA knockdown)

Measured: cell viability (log2)

C=CCN1CCc2cc(O)c(O)cc2C(c2ccccc2)C1 (centres undefined)
inactive: [1] 0.186 | [2] 0.0732 | [3] 0.221 | [4] 0.0252

O=C(/C=C/c1ccccc1)c1ccc(O)cc1
inactive: [5] 0.0743 | [6] 0.0315 | [7] 0.0622 | [8] 0.0674

O=C(O)c1ccc2c(c1)OCO2
inactive: [5] 0.146 | [6] 0.102 | [7] 0.137 | [8] 0.0963

C[C@]12CC[C@H](O)C[C@H]1C[C@@H]1OC13C2[C@H](O)C(=O)[C@]1(C)[C@@H](C2=CC(=O)OC2)CC[C@]31O (some centres undefined)
inactive: [5] 0.026 | [6] -0.0692 | [7] 0.111 | [8] -0.106

CC1=CC(=O)C2=C(C)CC[C@@H]3[C@H](OC(=O)[C@H]3C)[C@@H]12
inactive: [5] 0.0658 | [6] -0.00814 | [7] 0.0679 | [8] 0.106

CN(C)CCOC(=O)C(c1ccccc1)C1(O)CCCC1 (centres undefined)
inactive: [5] 0.0592 | [6] 0.0475 | [7] 0.185 | [8] 0.128

NC(=S)c1ccc[n+]([C@@H]2O[C@H](COP(=O)(O)OP(=O)(O)OC[C@H]3O[C@@H](n4cnc5c(N)ncnc54)[C@H](OP(=O)(O)O)[C@@H]3O)[C@@H](O)[C@H]2[O-])c1
inactive: [1] 0.209 | [2] 0.145 | [3] 0.254 | [4] 0.143

Nc1[nH]c(=O)ncc1F
inactive: [9] 0.0595 | [10] -0.0024 | [11] 0.0327 | [12] 0.0215 | [13] 0.0986 | [14] 0.0625 | [15] 0.0948 | [16] 0.0662 | [17] 0.0718 | [18] 0.0655 | [19] 0.0963 | [20] 0.073

OC[C@H]1NC[C@@H](O)[C@@H]1O
inactive: [1] 0.145 | [2] 0.102 | [3] 0.116 | [4] 0.0807

Cc1nc2c([nH]1)c(=O)n(C)c(=O)n2Cc1ccco1
inactive: [1] 0.194 | [2] 0.0162 | [3] 0.146 | [4] 0.012

CC(C)(C)NCC(O)COc1nsnc1N1CCOCC1 (centres undefined)
inactive: [1] 0.14 | [2] 0.0316 | [3] 0.202 | [4] 0.0877

NC[C@@H]1O[C@H](O[C@H]2[C@@H](O)[C@H](O[C@@H]3[C@@H](O)[C@H](N)C[C@H](N)[C@H]3O[C@H]3O[C@H](CN)[C@@H](O)[C@H](O)[C@H]3N)O[C@@H]2CO)[C@H](N)[C@@H](O)[C@@H]1O
inactive: [9] 0.11 | [10] 0.105 | [5] 0.123 | [6] 0.069 | [11] 0.0955 | [12] 0.0676 | [13] 0.0787 | [14] 0.105 | [7] 0.149 | [8] 0.0544 | [15] 0.113 | [16] 0.032 | [17] 0.0202 | [18] 0.092 | [19] 0.0145 | [20] 0.0474

CCC1(C)CC(=O)NC1=O (centres undefined)
inactive: [5] 0.116 | [6] -0.00845 | [1] 0.106 | [2] 0.0691 | [7] 0.149 | [8] 0.0817 | [3] 0.173 | [4] -0.00193

Cn1c(=O)c2c(nc(/C=C/c3cccc(Cl)c3)n2C)n(C)c1=O
inactive: [1] 0.124 | [2] 0.0223 | [3] 0.0343 | [4] 0.0759

O=S(=O)(c1cccc2cnccc12)N1CCCNCC1
active: [7] -0.187 | 25 µM, library screen: screen1, EWS-FLI1 expression: high (no doxycycline) -0.284

CCCCS(=N)(=O)CCC(N)C(=O)O (centres undefined)
inactive: [1] 0.206 | [2] 0.101 | [3] 0.0553 | [4] 0.063

COc1cccc(OC)c1OCCNCC1CSc2ccccc2O1 (centres undefined)
inactive: [1] 0.205 | [2] 0.147 | [3] -0.0369 | [4] 0.0792

CC(=O)O[C@@H]1CC2C(C)(C)[C@H](O)CC[C@]2(C)C2CC[C@@]3(C)[C@H](c4ccoc4)OC(=O)C4OC43[C@@]21C (some centres undefined)
inactive: [5] 0.0586 | [6] 0.071 | [7] 0.0532 | [8] 0.116

CCC(C)(C)C(=O)O[C@H]1C[C@@H](C)C=C2C=C[C@H](C)[C@H](CC[C@@H]3C[C@@H](O)CC(=O)O3)[C@H]21
active: [19] -1.27 | [20] -1.32
inactive: [9] 0.14 | [10] 0.05 | [5] 0.0551 | [6] -0.0746 | [11] 0.153 | [12] 0.105 | [13] 0.0408 | [14] 0.0447 | [7] 0.0209 | [8] -0.321 | [15] 0.107 | [16] -0.0366 | [17] -0.0829 | [18] -0.13

CC(=O)Oc1ccc(C(c2ccc(OC(C)=O)cc2)c2ccccn2)cc1
inactive: [5] 0.106 | [6] 0.00689 | [7] 0.153 | [8] 0.0151
